# Reference: the supplement of paper PMC8728848
# This is one part of a sample in which the strongest signals are shown more often than they occur.
# B1: Langerin (Homo sapiens) (protein)
# chain: LDYPRFMGTISDVKTNVQLLKGRVDNISTLDSEIKKNSDGMEAAGVQIQMVNESLGYVRSQFLKLKTSVEKANAQIQILTRSWEEVSTLNAQIPELKSDLEKASALNTKIRALQGSLENMSKLLKRQNDILQVVSQGWKYFKGNFYYFSLIPKTWYSAEQFCVSRNSHLTSVTSESEQEFLYKTAGGLIYWIGLTKAGMEGDWSWVDDTPFNKVQSARFWIPGEPNNAGNNEHCGNIKAPSLQAWNDAPCDKTFLFICKRPYVPSEPV[in this place human IgG1 Fc]
# Columns and labels:
# Experiment in all cases: glycan array binding signal (z-score within array); higher = stronger binding
# Conditions in all cases: glycan notation: IUPAC condensed, linker removed
# Fuc(a1-2)Gal(b1-3)GalNAc = target: Fuc(a1-2)Gal(b1-3)GalNAc
# Procedure, shortened: (§1)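 Glycan array binding is given as a within-array Z-score, which can be read as non-binding when negative. The arrays, 3228 of them, came from the Consortium for Functional Glycomics database and were retained only where the protein sequence was available. Z-scores were averaged across arrays of the same protein sequence at different concentrations or buffers and across linkers.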
# [1] = target: Fuc(a1-2)Gal(b1-3)[Fuc(a1-4)]GlcNAc(b1-2)Man(a1-3)[Fuc(a1-2)Gal(b1-3)[Fuc(a1-4)]GlcNAc(b1-2)Man(a1-3)]Man(b1-4)GlcNAc(b1-4)GlcNAc
# Procedure, shortened: as §1
# [2] = target: Fuc(a1-2)Gal(b1-4)GlcNAc(b1-2)Man(a1-3)[Fuc(a1-2)Gal(b1-4)GlcNAc(b1-2)Man(a1-6)]Man(b1-4)GlcNAc(b1-4)GlcNAc
# Procedure, shortened: as §1
# [3] = target: Fuc(a1-2)Gal(b1-4)GlcNAc(b1-2)Man(a1-3)[Fuc(a1-2)Gal(b1-4)GlcNAc(b1-2)Man(a1-6)]Man(b1-4)GlcNAc(b1-4)[Fuc(a1-6)]GlcNAc
# Procedure, shortened: as §1
# [4] = target: Fuc(a1-2)Gal(b1-4)GlcNAc(b1-3)Gal(b1-4)GlcNAc(b1-2)Man(a1-3)[Fuc(a1-2)Gal(b1-4)GlcNAc(b1-3)Gal(b1-4)GlcNAc(b1-2)Man(a1-6)]Man(b1-4)GlcNAc(b1-4)GlcNAc
# Procedure, shortened: as §1
# [5] = target: Fuc(a1-2)[Gal(a1-3)]Gal(b1-4)GlcNAc(b1-2)Man
# Procedure, shortened: as §1
# [6] = target: Fuc(a1-2)[GalNAc(a1-3)]Gal(b1-3)GlcNAc(b1-2)Man(a1-3)[Fuc(a1-2)[GalNAc(a1-3)]Gal(b1-3)GlcNAc(b1-2)Man(a1-6)]Man(b1-4)GlcNAc(b1-4)GlcNAc
# Procedure, shortened: as §1
# [7] = target: Fuc(a1-3)[Gal(b1-4)]GlcNAc(b1-2)Man(a1-3)[Fuc(a1-3)[Gal(b1-4)]GlcNAc(b1-2)Man(a1-6)]Man(b1-4)GlcNAc(b1-4)[Fuc(a1-6)]GlcNAc
# Procedure, shortened: as §1
# Gal(a1-3)Gal(b1-4)GlcNAc = target: Gal(a1-3)Gal(b1-4)GlcNAc
# Procedure, shortened: as §1
# [8] = target: Gal(b1-3)GalNAc(a1-3)[Fuc(a1-2)]Gal(b1-4)GlcNAc
# Procedure, shortened: as §1
# Gal(b1-3)GalNAc(b1-3)Gal = target: Gal(b1-3)GalNAc(b1-3)Gal
# Procedure, shortened: as §1
# [9] = target: Gal(b1-3)GlcNAc(b1-3)Gal(b1-4)GlcNAc(b1-3)Gal(b1-4)GlcNAc(b1-2)[Gal(b1-3)GlcNAc(b1-3)Gal(b1-4)GlcNAc(b1-3)Gal(b1-4)GlcNAc(b1-6)]Man(a1-6)[Gal(b1-3)GlcNAc(b1-3)Gal(b1-4)GlcNAc(b1-3)Gal(b1-4)GlcNAc(b1-2)Man(a1-3)]Man(b1-4)GlcNAc(b1-4)[Fuc(a1-6)]GlcNAc
# Procedure, shortened: as §1
# [10] = target: Gal(b1-3)GlcNAc(b1-3)Gal(b1-4)GlcNAc(b1-6)[Gal(b1-3)GlcNAc(b1-3)]Gal(b1-4)Glc
# Procedure, shortened: as §1
# [11] = target: Gal(b1-3)[Fuc(a1-4)]GlcNAc
# Procedure, shortened: as §1
# [12] = target: Gal(b1-4)GalNAc(a1-3)[Fuc(a1-2)]Gal(b1-4)GlcNAc
# Procedure, shortened: as §1
# [13] = target: Gal(b1-4)GlcNAc(b1-2)Man(a1-3)[Gal(b1-4)GlcNAc(b1-2)Man(a1-6)][GlcNAc(b1-4)]Man(b1-4)GlcNAc(b1-4)[Fuc(a1-6)]GlcNAc
# Procedure, shortened: as §1
# [14] = target: Gal(b1-4)GlcNAc(b1-3)Gal(b1-3)GlcNAc
# Procedure, shortened: as §1
# [15] = target: Gal(b1-4)GlcNAc(b1-3)Gal(b1-4)GlcNAc(b1-3)Gal(b1-4)GlcNAc(b1-2)[Gal(b1-4)GlcNAc(b1-3)Gal(b1-4)GlcNAc(b1-3)Gal(b1-4)GlcNAc(b1-6)]Man(a1-6)[Gal(b1-4)GlcNAc(b1-3)Gal(b1-4)GlcNAc(b1-3)Gal(b1-4)GlcNAc(b1-2)Man(a1-3)]Man(b1-4)GlcNAc(b1-4)[Fuc(a1-6)]GlcNAc
# Procedure, shortened: as §1
# [16] = target: Gal(b1-4)GlcNAc(b1-3)Gal(b1-4)GlcNAc(b1-3)Gal(b1-4)GlcNAc(b1-3)Gal(b1-4)GlcNAc(b1-3)Gal(b1-4)GlcNAc(b1-2)[Gal(b1-4)GlcNAc(b1-3)Gal(b1-4)GlcNAc(b1-3)Gal(b1-4)GlcNAc(b1-3)Gal(b1-4)GlcNAc(b1-3)Gal(b1-4)GlcNAc(b1-6)]Man(a1-6)[Gal(b1-4)GlcNAc(b1-3)Gal(b1-4)GlcNAc(b1-3)Gal(b1-4)GlcNAc(b1-3)Gal(b1-4)GlcNAc(b1-3)Gal(b1-4)GlcNAc(b1-2)Man(a1-3)]Man(b1-4)GlcNAc(b1-4)[Fuc(a1-6)]GlcNAc
# Procedure, shortened: as §1
# [17] = target: Gal(b1-4)GlcNAc(b1-3)GalNAc
# Procedure, shortened: as §1
# [18] = target: Gal(b1-4)GlcNAc(b1-6)[Gal(b1-4)GlcNAc(b1-3)]GalNAc
# Procedure, shortened: as §1
# Gal(b1-4)GlcNAc6P = target: Gal(b1-4)GlcNAc6P
# Procedure, shortened: as §1
# Gal6P(b1-4)GlcNAc = target: Gal6P(b1-4)GlcNAc
# Procedure, shortened: as §1
# Gal6S(b1-3)GlcNAc6S = target: Gal6S(b1-3)GlcNAc6S
# Procedure, shortened: as §1
# Gal6S(b1-4)GlcNAc6S = target: Gal6S(b1-4)GlcNAc6S
# Procedure, shortened: as §1
# GalNAc(a1-3)Gal = target: GalNAc(a1-3)Gal
# Procedure, shortened: as §1
binder,measurement,setting,value
B1,glycan array binding signal (z-score),Fuc(a1-2)Gal(b1-3)GalNAc,-0.628
same,glycan array binding signal (z-score),[1],0.978
same,glycan array binding signal (z-score),[2],1.81
same,glycan array binding signal (z-score),[3],1.48
same,glycan array binding signal (z-score),[4],2.11
same,glycan array binding signal (z-score),[5],-0.776
same,glycan array binding signal (z-score),[6],2.03
same,glycan array binding signal (z-score),[7],-0.718
same,glycan array binding signal (z-score),Gal(a1-3)Gal(b1-4)GlcNAc,-0.431
same,glycan array binding signal (z-score),[8],-0.623
same,glycan array binding signal (z-score),Gal(b1-3)GalNAc(b1-3)Gal,-1
same,glycan array binding signal (z-score),[9],2.15
same,glycan array binding signal (z-score),[10],-0.977
same,glycan array binding signal (z-score),[11],-0.455
same,glycan array binding signal (z-score),[12],-0.804
same,glycan array binding signal (z-score),[13],-1.11
same,glycan array binding signal (z-score),[14],-0.815
same,glycan array binding signal (z-score),[15],0.964
same,glycan array binding signal (z-score),[16],1
same,glycan array binding signal (z-score),[17],-0.738
same,glycan array binding signal (z-score),[18],-0.928
same,glycan array binding signal (z-score),Gal(b1-4)GlcNAc6P,-0.56
same,glycan array binding signal (z-score),Gal6P(b1-4)GlcNAc,-0.799
same,glycan array binding signal (z-score),Gal6S(b1-3)GlcNAc6S,2.04
same,glycan array binding signal (z-score),Gal6S(b1-4)GlcNAc6S,2.2
same,glycan array binding signal (z-score),GalNAc(a1-3)Gal,-0.655
